The values below are quoted from earlier work in patent US4652586A, “Selective beta-2 adrenergic antagonists for the treatment of glaucoma” (priority 1980, dated 1987).

Read-outs that look alike come from different tables or passages of the source.

Series [1] deals with beta2 adrenergic receptor present in mammalian lung. Particulars: Table I column D; data from Minneman et al; read-out: Kd for IHYP Binding, Lung (D); cited from earlier work.
The next series addresses lung adenylate cyclase (Rattus norvegicus, UniProt P10608).

Chain of lung adenylate cyclase (P10608 whole entry): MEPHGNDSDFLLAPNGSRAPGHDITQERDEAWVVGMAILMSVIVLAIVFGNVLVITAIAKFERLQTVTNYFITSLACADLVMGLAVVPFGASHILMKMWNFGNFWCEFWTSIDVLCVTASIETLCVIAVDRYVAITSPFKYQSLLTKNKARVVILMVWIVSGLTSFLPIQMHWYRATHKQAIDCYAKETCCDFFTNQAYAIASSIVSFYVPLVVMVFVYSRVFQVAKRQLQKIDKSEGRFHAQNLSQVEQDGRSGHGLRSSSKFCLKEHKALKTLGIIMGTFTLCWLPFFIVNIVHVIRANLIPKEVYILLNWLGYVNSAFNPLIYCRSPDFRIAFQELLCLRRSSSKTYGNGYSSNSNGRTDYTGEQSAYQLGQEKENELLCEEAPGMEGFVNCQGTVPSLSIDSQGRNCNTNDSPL

Usually Kd stands for the free concentration of one partner at which half of the binding sites on the other are occupied at equilibrium, for simple one-to-one binding. For orientation: Ki means a measure of affinity in units of concentration, obtained from inhibition or displacement. As for `COc1ccc(OC)c(C(O)C(C)NC(C)(C)C)c1` (centres unmarked) [Butoxamine], in series [1], the dissociation constant (Kd) is 3550 nM. On lung adenylate cyclase (antagonists; Table I column F; data from Minneman et al; read-out: Adenylate Cyclase Ki, Lung (F); cited from earlier work), the Ki is 1350 nM.

As for `Cc1ccc(C(O)C(C)NC(C)C)cc1` (centres unmarked) [H35/25, (1(4'-methyl phenyl)-2-isopropylaminopropanol)], in series [1], the dissociation constant Kd was 840 nM. In addition, on lung adenylate cyclase (read-out: Adenylate Cyclase Ki, Lung (F); antagonists; Table I column F; data from Minneman et al; cited from earlier work), the Ki was 850 nM.

For `CC(=O)Nc1ccc(OCC(O)CNC(C)C)cc1` (centres unmarked) [Practolol, practolol], in series [1], the Kd was 26000 nM.
